From PubChem BioAssay AID624417 (National Center for Advancing Translational Sciences (NCATS), 2012)
About 6,400 (1.6%) of roughly 410,000 compounds were called active. This list was built around the results that the source calls inconclusive (neither active nor inactive); the mix of calls is not that of the screen. The call rests on the fitted dose curve; in most records, active means well fitted inhibition curve with a large enough effect; inconclusive means small, poorly fitted or top-dose-only effect; inactive means no such curve, though single readings can be large or run the other way. A potency beside an inconclusive call is a rough fit, not a confirmed value.

target: Glucagon-like peptide 1 receptor (Homo sapiens) (UniProt P43220); test: qHTS of GLP-1 Receptor Inverse Agonists (Inhibition Mode); conditions: HEK293 GLP-1R CRE-luciferase, luminescence, 24 h, GLP-1R form is constitutively active; activity change, negative = inhibition: at 38.3 µM (top of the series) unless noted; further: nearly all actives have a fitted effect of over 55% in size
Summary of the method: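 Inverse agonists were sought by their lowering of basal cAMP reporter luciferase output in HEK293 cells stably carrying constitutively active human GLP-1R, after 24 h compound treatment.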
On the % scale 0 is the no-effect control and ±100 the full control effect; potency means the concentration at half of the fitted maximal effect; tags describe the fitted curve by direction and shape.

Chain of UniProt P43220 (P43220 whole entry, looked up): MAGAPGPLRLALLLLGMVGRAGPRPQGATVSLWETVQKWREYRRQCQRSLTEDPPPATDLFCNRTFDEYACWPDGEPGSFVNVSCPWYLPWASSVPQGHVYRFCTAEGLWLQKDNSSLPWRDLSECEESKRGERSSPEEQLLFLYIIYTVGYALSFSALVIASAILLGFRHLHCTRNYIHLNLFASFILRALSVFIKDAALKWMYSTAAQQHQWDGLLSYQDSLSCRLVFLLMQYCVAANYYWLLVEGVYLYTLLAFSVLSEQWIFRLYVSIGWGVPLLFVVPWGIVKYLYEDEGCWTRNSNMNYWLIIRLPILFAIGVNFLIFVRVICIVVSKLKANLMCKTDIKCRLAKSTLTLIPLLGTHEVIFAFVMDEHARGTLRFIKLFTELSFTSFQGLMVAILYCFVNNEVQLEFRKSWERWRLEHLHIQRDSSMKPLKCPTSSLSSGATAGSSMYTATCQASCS

Potency, inconclusive:
CCOc1ccc2nc(NC(=O)c3cccc(-c4cc5ccccc5oc4=O)c3)sc2c1 2 µM [inhibitor, full curve, poor fit]
CC(NC(=S)NCCCN1CCOCC1)C12CC3CC(CC(C3)C1)C2 (configuration not stated) 28.2 µM [inhibitor, single point]
O=C1CC(Sc2ncccn2)C(=O)N1c1ccccc1C(F)(F)F (configuration not stated) 10 µM [inhibitor, partial curve]
CCCCC[C@H](C)N1C[C@@H](COCc2ccccc2)Oc2cc(N3CCC[C@H]3C(N)=O)ccc2S1(=O)=O 28.2 µM [inhibitor, single point]
COc1ccccc1CN(C)C(=O)COC(=O)c1cc(C)oc1C 31.6 µM [inhibitor, single point]
Cc1ccc(-c2cc(-c3ccccc3Cl)c(C#N)c(N)n2)o1 28.2 µM [inhibitor, single point]
CCCCCCCN(c1ccccc1)[C@@H]1C[C@H]2CCCC(=O)N3CC[C@@H](C1)[C@@H]23 10 µM [inhibitor, partial curve, poor fit]
COc1cccc(CNC(=O)CNC(=S)N(Cc2ccccc2)Cc2ccccc2F)c1 10 µM [inhibitor, partial curve, poor fit]
CCc1c(C)sc2c1CCN(Cc1ccc(C#N)cc1)C2c1ccccc1 (configuration not stated) 10 µM [inhibitor, partial curve]
Clc1ccccc1OCc1nnc(-c2ccccc2Br)o1 8.91 µM [inhibitor, partial curve, poor fit]
O=C(c1cnn(-c2ccccc2)c1)c1ccccc1O 8.91 µM [inhibitor, partial curve, poor fit]
O=C(Nc1ccccc1N1CCOCC1)c1ccc(N2CCOCC2)c([N+](=O)[O-])c1 0.501 µM [inhibitor, full curve, poor fit]
C/C(=N\NC(=S)NCc1ccccc1)c1ccc(Br)cc1 15.8 µM [inhibitor, partial curve, poor fit]
Cc1nc2cc(OC3(C)CCN(Cc4ccc(OC(F)(F)F)cc4)C3)ccc2s1 (configuration not stated) 28.2 µM [inhibitor, single point]
COc1ccccc1NS(=O)(=O)c1cccc(C(=O)NCC(c2ccco2)N2CCCCC2)c1 (configuration not stated) 11.2 µM [inhibitor, single point]
COc1cccc(C(NC(C)=O)c2nc(-c3ccc4ccccc4c3)cs2)c1 (configuration not stated) 22.4 µM [inhibitor, single point]
CC(C)(C)c1ccc(NC(=O)c2c(F)cccc2Cl)cc1 10 µM [inhibitor, partial curve, poor fit]
CC(C)(C)NCc1cc(Cl)ccc1OCc1cccs1 20 µM [inhibitor, single point]
CN(C)C(=O)CSc1nc2ccccc2n1Cc1ccccc1 1.12 µM [inhibitor, partial curve, poor fit]
CCOc1cccc2sc(N(CCN(C)C)C(=O)c3ccc4c(c3)OCCO4)nc12 6.31 µM [inhibitor, partial curve, poor fit]
Cc1onc(-c2ccc(Cl)cc2)c1-c1ccnn1S(=O)(=O)c1ccc(Cl)cc1 10 µM [inhibitor, single point]
COC(=O)C1=C(CSCc2ccco2)NC(=O)NC1c1cc(C)ccc1C (configuration not stated) 5.01 µM [inhibitor, partial curve]
Cc1ccc(CN2C(=O)C(CC(C)C)Nc3ncnc(N4CCN(c5ccccn5)CC4)c32)cc1 (configuration not stated) 14.1 µM [inhibitor, single point]
Cc1ccsc1C(=O)N1CCN(c2ncc(C(F)(F)F)cc2Cl)CC1 10 µM [inhibitor, single point]
C=C(C)c1cccc(C(C)(C)NC(=O)N2CCCC(C)C2)c1 (configuration not stated) 7.08 µM [inhibitor, partial curve, poor fit]
COc1ccccc1NC(=S)NC1CC2CCC1C2 (configuration not stated) 28.2 µM [inhibitor, single point]
CCCCOc1ccc(C(=O)NCC(=O)NCCOc2ccccc2)cc1 8.91 µM [inhibitor, partial curve]
Nc1ccccc1C(=O)NC12CC3CC(CC(C3)C1)C2 11.2 µM [inhibitor, partial curve, poor fit]
CN1/C(=C/c2cccc[n+]2C)Sc2ccccc21 11.2 µM [inhibitor, partial curve, poor fit]
CCc1ccc(-c2cn3nc(CC)sc3n2)cc1 10 µM [inhibitor, single point]
CN(C)c1ccc(-c2nnc(SCC3CCCO3)n2C)cc1 (configuration not stated) 28.2 µM [inhibitor, single point]
Oc1ccccc1-c1cc(-c2ccccc2Cl)[nH]n1 28.2 µM [inhibitor, single point]
Cc1ccn2c(NC3CCCC3)c(-c3ccncc3)nc2c1 10 µM [inhibitor, partial curve, poor fit]
c1ccn2cc(C34CC5CC(CC(C5)C3)C4)nc2c1 10 µM [inhibitor, partial curve, poor fit]
Cc1cccc(NC(=O)c2nc(-c3ccccc3)n(-c3ccccc3)n2)c1C 14.1 µM [inhibitor, partial curve, poor fit]
Cc1ccccc1CN1CCC(CNC(=O)Nc2ccc(F)cc2F)CC1 22.4 µM [inhibitor, single point]
Cc1ccc(S(=O)(=O)/N=C(/Nc2ccccc2C)c2ccccc2)cc1 28.2 µM [inhibitor, single point]
O=C(Nc1nc2ccccc2s1)c1cc(-c2ccco2)nc2ccccc12 28.2 µM [inhibitor, single point]
O=C(COC(=O)C1(c2ccc(F)cc2)CCCC1)Nc1ncc(C(F)(F)F)cc1Cl 28.2 µM [inhibitor, single point]
O=C1N(c2ccccc2)C(=Nc2ccccc2)SC12CC2 11.2 µM [inhibitor, single point]
O=C(COC(=O)c1ccccc1C(=O)c1ccc(Cl)cc1)NCCc1ccccc1 10 µM [inhibitor, partial curve]
O=C(CCN1CCOCC1)N/N=C/c1cc(Br)cc(Br)c1O 28.2 µM [inhibitor, single point]
O=C1C2C3c4ccccc4C(c4ccccc43)[C@@H]2c2nc3ccccc3n21 (some centres not stated) 11.2 µM [inhibitor, single point]
COc1ccc(N2CC(C(=O)Nc3nc4ccccc4s3)CC2=O)cc1 (configuration not stated) 11.2 µM [inhibitor, partial curve, poor fit]
C[C@H](CO)N1C[C@H](C)[C@@H](CN(C)S(=O)(=O)c2ccc(Cl)cc2)Oc2ccc(NS(=O)(=O)c3ccccc3)cc2CC1=O 25.1 µM [inhibitor, single point]
CCOc1ccc(-c2nonc2NC(=O)c2oc3ccc(CC)cc3c2C)cc1 10 µM [inhibitor, partial curve, poor fit]
C=CCN(CC=C)c1nc2ccccc2nc1C(C#N)C(=O)OC(C)C (configuration not stated) 20 µM [inhibitor, single point]

Potency, active:
CCSc1nc2ccccc2c(OCc2ccc(Cl)cc2)c1C(=O)OC 22.4 µM
COC(=O)c1sccc1S(=O)(=O)N(CC(=O)Nc1cccc(C)c1C)c1ccc(C)c(C)c1 11.2 µM

Activity change, negative = inhibition, inactive:
CCOc1ccc(Nc2nc(-c3cccnc3)cs2)cc1 -18.7%
COc1ccc(-c2nnc(SC(C)C(=O)Nc3ccc4c(c3)OCCO4)o2)cc1 (configuration not stated) 68.2%
CCc1cccc(C)c1NC(=O)CSc1nc2ccccc2nc1Cc1ccccc1 -5.05%
COc1ccccc1-c1nnc(NC(C)=O)s1 0%
COc1ccc(Cn2c(CO)cnc2SCc2ccc(C)cc2)cc1 0.467%
CC(C)(C)OC(=O)N1CCC(c2c(C(=O)N3CCN(Cc4ccccc4)CC3)cnn2-c2cccc(Cl)c2)CC1 0.25%
CSc1ccc(C2NN=C(c3ccccc3)S2)cc1 (configuration not stated) -22.7%
O=S(=O)(CCN1CCOCC1)c1ccc(Cl)cc1 13.8%
C#CCNC(=O)C[C@@H]1C[C@@]2(C(=O)OC)CC(C)(C)CC=C2N(Cc2ccco2)C1=O 0.361%
CCc1ccccc1NC(=O)c1ccc2c(c1)CCCN2S(C)(=O)=O 18.7%
CC1(Cc2cccc(C(N)=O)c2)C(=O)Nc2c(Cl)cccc21 (configuration not stated) 11.5%
CCOC(=O)N1CCN(C(=O)c2oc3ccc(S(=O)(=O)N4CCCCC4)cc3c2C)CC1 6.92%
Nc1nsc2ccccc12 -19.5%
COc1ccccc1CNC(=O)Cn1cc2c(n1)-c1c(oc(C(=O)N3CCOCC3)c1C)CC2 1.21%
CCC(c1nnnn1Cc1ccc(OC)cc1)N(CCCO)Cc1cc2cc3c(cc2[nH]c1=O)OCO3 (configuration not stated) -6.66%
CN(C(=O)c1cnc(N2CCN(c3ncccn3)CC2)c2ccccc12)c1ccc(Cl)cc1 2.08%
COC(=O)c1ccc(NC(=O)CN2CCN(c3ccccc3C)CC2)cc1 -16.8%
CN1CCN(CCNC(=O)c2cnn(-c3ccc(Cl)cc3)c2C2CCN(C(=O)OC(C)(C)C)CC2)CC1 -5.85%
